The campaign covered roughly 16,000 compounds. About 120 (0.75%) were called active. Roughly 4% stayed inconclusive and do not appear here. The call rests on the fitted dose curve; in most records, active means well fitted inhibition curve with a large enough effect; inconclusive means small, poorly fitted or top-dose-only effect; inactive means no such curve, though single readings can be large or run the other way. The list shows a part of the results.

Sequence of UniProt O95398 (O95398 whole entry, looked up): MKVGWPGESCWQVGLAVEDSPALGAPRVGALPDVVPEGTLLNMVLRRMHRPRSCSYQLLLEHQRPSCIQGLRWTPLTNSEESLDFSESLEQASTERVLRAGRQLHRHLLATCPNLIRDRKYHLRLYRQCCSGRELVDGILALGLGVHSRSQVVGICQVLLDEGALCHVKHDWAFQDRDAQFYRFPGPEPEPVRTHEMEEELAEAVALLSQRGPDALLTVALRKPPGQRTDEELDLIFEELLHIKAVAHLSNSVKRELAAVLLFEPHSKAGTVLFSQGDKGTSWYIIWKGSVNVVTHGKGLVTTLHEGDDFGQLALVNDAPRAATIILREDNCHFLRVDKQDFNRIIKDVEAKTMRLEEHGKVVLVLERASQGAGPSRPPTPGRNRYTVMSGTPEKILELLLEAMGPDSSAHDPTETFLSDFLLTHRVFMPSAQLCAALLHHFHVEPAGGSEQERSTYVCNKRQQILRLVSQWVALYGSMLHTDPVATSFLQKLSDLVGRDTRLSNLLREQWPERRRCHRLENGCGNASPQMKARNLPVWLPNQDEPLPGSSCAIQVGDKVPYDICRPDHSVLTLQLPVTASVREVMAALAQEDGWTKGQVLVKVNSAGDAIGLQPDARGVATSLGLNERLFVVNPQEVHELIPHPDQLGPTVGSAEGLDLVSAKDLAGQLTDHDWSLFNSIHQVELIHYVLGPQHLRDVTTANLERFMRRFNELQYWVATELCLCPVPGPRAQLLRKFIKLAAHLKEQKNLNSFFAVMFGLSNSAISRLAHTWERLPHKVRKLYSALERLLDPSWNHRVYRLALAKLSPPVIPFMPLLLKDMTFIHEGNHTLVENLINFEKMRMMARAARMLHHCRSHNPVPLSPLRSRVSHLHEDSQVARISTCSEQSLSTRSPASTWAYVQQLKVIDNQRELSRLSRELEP

In the assay the target is Rap guanine nucleotide exchange factor 3 (Homo sapiens) (UniProt O95398). The assay can be described thus: Validation qHTS for antagonist of cAMP-regulated guanine nucleotide exchange factor 3 (EPAC1). Further: nearly all actives have a fitted effect of over 75% in size. The following applies: EPAC1 Rap1B-BODIPY-GDP exchange, fluorescence; series mostly up to 150 µM; activity change, negative = inhibition: at the top concentration. The source says:
Assay Provider (PI): Xiaodong Cheng Ph.D.
The University of Texas Medical Branch, […], TX
In multi-cellular eukaryotic organisms, the effects of cAMP are transduced by two ubiquitously-expressed intracellular cAMP receptors, the classic protein kinase A/cAMP-dependent protein kinase (PKA/cAPK) and the more recently discovered exchange protein directly activated by cAMP/cAMP-regulated guanine nucleotide exchange factor (EPAC/cAMP-GEF). Both PKA and EPAC are ubiquitously expressed in all tissues, and an increase in intracellular cAMP levels will lead to the activation of both PKA and EPAC. Therefore, careful dissections of the individual role and relative contribution of EPAC and PKA within the overall cAMP signaling in various model systems are critical for further elucidating the mechanism of cAMP signaling. To date no EPAC-specific antagonists and agonist, as well as isoform-specific agonists have been reported, and developing EPAC-specific pharmacological probes to determine the physiological functions that EPAC play in the overall cAMP-mediated signaling remains a major challenge within the research field. Furthermore, identified regulators of EPAC may lead to new mechanism-based therapeutic strategies specifically targeting the EPAC / cAMP-signaling components as EPAC has been implicated to play important roles in major human pathological conditions such as diabetes, heart disease, and cancer.
This qHTS will be used to screen the Molecular Libraries Small Molecule Repository (MLSMR) as a concentration-titration series using the NCGC unique quantitative screening (qHTS) platform to find activators for EPAC1. In addition, this assay will also be used as a counterscreen for the EPAC2 qHTS. This fluorescent based assay is developed and validated for EPAC1 that measures exchange using EPAC effector Rap1 complex with BODIPY-GDP, a GDP analog with a tethered fluorophores. Activators are identified by monitoring the change in fluorescence signal as the exchanged free BODIPY-GDP has a reduced fluorescence compared to Rap1-bound BODIPY-GDP. Increase in signal (activation) is the desired outcome for the EPAC1 agonist while no activity in this assay is desired for the EPAC2 agonist counterscreen.
[1] de Rooij, J., Zwartkruis, F. J., Verheijen, M. H., Cool, R. H., Nijman, S. M., Wittinghofer, A., and Bos, J.L. (1998) Nature 396, 474-477.
Briefly, three uL of reagents (100 nM EPAC1, 250 nM RAP1B-BODIPY-GDP, 50 uM GDP) were dispensed into a 1536-well Greiner black solid-bottom medium binding assay plate. Controls and test compounds (23 nL) were transferred to the plate via a Kalypsys pin tool equipped with a 1536-pin array. The plates were centrifuged at 1,000 rpm for 15 seconds followed by 5 minute incubation at room temperature. The assay plates were read at 5 minute intervals for 30 minutes in the ViewLux plate reader using 480nm excitation and 540nm emission filters. The results were normalized to the […] positive control ATA and DMSO.
On the technique in general: Quantitative high-throughput screening tests each substance at several concentrations.
Turning to `COc1ccc2oc(-c3ccc(O)cc3)cc(=O)c2c1`, the “activity change, negative = inhibition” value is inactive: 9.89%.
Regarding `CCOC(=O)N1CCN(Cc2ccc3c(c2)CN(C(=O)c2cccc(-n4cccn4)c2)CCO3)CC1`, the “activity change, negative = inhibition” value was inactive: 5.74%.
The figure for `COc1ccc(-n2c(=O)c(-c3ccccc3)nc3cnc(N4CCN(C)CC4)nc32)cc1` is inactive: 10.7%.
Take `COc1cc(-c2cnc3ccccc3c2)cc2c1OCCN(C(=O)CCC(=O)c1ccc(F)cc1)C2`: the “activity change, negative = inhibition” value is inactive: 22.4%.
In the case of `O=C(N/N=C/c1ccccc1O)c1ccncc1`, the “activity change, negative = inhibition” value is inactive: 7.33%.
In the case of `C[C@@H]1CN(c2c(F)c(N)c3c(=O)c(C(=O)O)cn(C4CC4)c3c2F)C[C@H](C)N1`, the “activity change, negative = inhibition” value was inactive: 5.64%.
To `O=c1n(CC2CO2)c(=O)n(CC2CO2)c(=O)n1CC1CO1` (centres undefined) belongs inactive: 12%; to `Cn1c(=O)c2[nH]c(-c3ccc(S(=O)(=O)O)cc3)nc2n(C)c1=O`, “inactive”.
As for `C[C@@H]1O[C@@H]1P(=O)(O)O`, the “activity change, negative = inhibition” value is inactive: -5.33%.
The figure for `Cn1cccc1C(=O)N1CCC2(CCCN(c3ncccn3)C2)CC1` is inactive: 6.68%; for `COc1cc(-c2c(-c3ccc4c(c3)OCO4)noc2C)ccc1F` it is inactive: 1.48%.
The figure for `O=c1c(-c2ccc(F)c(F)c2)nc2cncnc2n1Cc1ccccc1Cl` is inactive: 7.86%.
Turning to `FC(F)(F)c1cc(CO[C@H]2CCCN[C@H]2c2ccccc2)cc(C(F)(F)F)c1`, the “activity change, negative = inhibition” value was inactive: -3.45%.
Turning to `Cc1ccc(S(=O)(=O)NCl)cc1`, the “activity change, negative = inhibition” value is inactive: 16.9%.
Consider `Nc1ccc(C=O)cc1`, for which the “activity change, negative = inhibition” value is inactive: 0.426%.
As to `COc1ccc(Oc2ncc3nc(-c4cn(C)c5ccccc45)c(=O)n(C)c3n2)cc1`, the “activity change, negative = inhibition” value is inactive: -15%.
The figure for `CCC(=O)N[C@@H]1CCc2cccc(OC)c2C1` is inactive: -11.3%.
With `C/C(=C\CO)CCC(C)CCCC(C)CCCC(C)C` (centres undefined), the “activity change, negative = inhibition” value is inactive: -14%.
As for `O=C(c1ccco1)N1CCC[C@@]2(CCN(c3cccc(-c4ccccc4)c3)C2)C1`, the “activity change, negative = inhibition” value was inactive: 4.7%.
Turning to `OCC1=CC[N+]2(Cc3ccccc3)CCC(O)[C@@H]12` (some centres undefined), the “activity change, negative = inhibition” value was inactive: 14.4%.
Regarding `COc1cccc(Nc2ncc3nc(-c4ccccc4)c(=O)n(C)c3n2)c1`, the “activity change, negative = inhibition” value was inactive: 30.8%.
Regarding `O=C(c1ccco1)N1CCC2(CC1)CCN(c1ccccn1)CC2`, the “activity change, negative = inhibition” value is inactive: 8.23%.
`COC(=O)[C@@H]1CCCN1S(=O)(=O)Cc1ccccc1`: the “activity change, negative = inhibition” value was inactive: 11.3%.
`CCN1CCCC1CNC(=O)c1cnn(-c2nccc(-c3ccccc3F)n2)c1C` (centres undefined): the “activity change, negative = inhibition” value is inactive: 2.85%.
The figure for `CCCCO` is inactive: 26.9%; for `C=C1C2CC[C@@]3(C)C(c4ccoc4)OC(=O)C[C@@]13OC1CC(=O)C(C)(C)C(C(O)C(=O)OC)[C@]12C` (some centres undefined) it is inactive: 4.44%; for `O=c1c(-c2cccs2)nc2cncnc2n1Cc1ccccc1` it is inactive: 22.1%.
Regarding `COc1ccc(Oc2ncc3nc(-c4cccs4)c(=O)n(CCC#N)c3n2)cc1`, the “activity change, negative = inhibition” value is inactive: 4.99%.
Consider `CCCCC(=O)Oc1ccccc1C(=O)O`, for which the “activity change, negative = inhibition” value is inactive: 1.66%.
In the case of `CC[C@]12CCCN3CCc4c(n(c5ccccc45)C(=O)C1)[C@@H]32`, the “activity change, negative = inhibition” value was inactive: 10.8% [at 75.8 µM].
With `C[C@@H]1CCC(=O)N(CC[C@H](Oc2ccccc2)c2ccccc2)CC1`, the “activity change, negative = inhibition” value was inactive: 0.915%.
Regarding `CC(N)(C(=O)O)c1ccc(C(=O)O)cc1` (centres undefined), the activity change, negative = inhibition result is “inactive”.
As for `CC(=O)OCOC(c1ccc2ccccc2c1)P(=O)(OCOC(C)=O)OCOC(C)=O` (centres undefined), the “activity change, negative = inhibition” value is inactive: 17.1% [at 201 µM].
Regarding `CN1CCc2cccc3c2C1Cc1ccc(O)c(O)c1-3` (centres undefined), the activity change, negative = inhibition result is “inactive”.
Regarding `CC#CCOC(=O)c1c(C)nc2sc3c(c2c1N)CCC(O)C3` (centres undefined), the “activity change, negative = inhibition” value is inactive: 11.6% [at 75.8 µM].
`COC(=O)C1CCN(Cc2ccc3c(c2)CN(C(=O)c2cc(C)oc2C)CCO3)CC1`: the “activity change, negative = inhibition” value is inactive: 3.32%.
To `O=C(Nc1cccc(F)c1)N1CCCC2(CCN(C(=O)c3cnccn3)CC2)C1` belongs inactive: 17%; to `CCOc1ccccc1CN1CCCC(c2nc(C)ncc2-c2ccc(F)cc2)C1` (centres undefined), inactive: 5.12%; to `COc1ccccc1C1CN(Cc2ccccc2O)Cc2ccccc2O1` (centres undefined), inactive: 0.157%.
For `CC(N)(COP(=O)(O)O)C(=O)O` (centres undefined), the “activity change, negative = inhibition” value is inactive: 18.2%.
As for `COc1ccc(-c2ccnc(-n3ncc(C(=O)NCc4cccnc4)c3C3CC3)n2)cc1F`, the “activity change, negative = inhibition” value was inactive: 5.56%.
To `NC(=O)c1sc(-c2ccsc2)cc1N` belongs inactive: 14.6%.
To `COc1ccc(/C=C/C(=O)N2CCc3c(cnc(C)c3CNC(=O)c3ccsc3)C2)cc1OC` belongs inactive: 8.3%; to `COc1ccccc1CNc1ccnc(-c2ccccc2Cl)n1`, inactive: -19.3%.
Take `CCCCCCCCCCC(C)(C)C(=O)Nc1c(OC)cc(OC)cc1OC`: the “activity change, negative = inhibition” value is inactive: -8.27% [at 75.8 µM].
To `CN=C(N)NCCC[C@H](N)C(=O)O` belongs “inactive”; to `CC(=O)NCCNc1ncnc2ccc(-c3ccccc3C(F)(F)F)cc12`, inactive: 5.62%.
Regarding `COc1ccc(F)c(CN2CCOc3ccc(CN4CCC(O)(c5cccnc5)CC4)cc3C2)c1`, the “activity change, negative = inhibition” value is inactive: 10.4%.
For `COc1cc(OC)c(/C=C2/C(=O)Nc3ccccc32)c(OC)c1`, the “activity change, negative = inhibition” value was inactive: 14.5% [at 75.8 µM].

The values are drawn from PubChem BioAssay AID1645882 (National Center for Advancing Translational Sciences (NCATS), 2021).
